{"source": "the supplement of paper PMC8728848", "experiment_in_all_cases": "glycan array binding signal (z-score within array); higher = stronger binding", "conditions_in_all_cases": "glycan notation: IUPAC condensed, linker removed", "key": {"[1]": {"biological_target": "Man(a1-6)Man(b1-4)GlcNAc(b1-4)GlcNAc", "how_it_was_run": "(§1)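 The Consortium for Functional Glycomics database supplied 3228 glycan arrays, of which those lacking an available protein sequence were dropped. The binding signal, a within-array Z-score, was averaged across arrays of the same protein sequence and across linkers. Negative scores can be read as non-binding.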"}, "[2]": {"biological_target": "Man(b1-4)GlcNAc", "how_it_was_run": "as §1"}, "[3]": {"biological_target": "Man(b1-4)Man(b1-4)Man(b1-4)Man", "how_it_was_run": "as §1"}, "[4]": {"biological_target": "Man(b1-4)Man(b1-4)Man(b1-4)Man(b1-4)Man", "how_it_was_run": "as §1"}, "[5]": {"biological_target": "Man(b1-4)Man(b1-4)Man(b1-4)Man(b1-4)Man(b1-4)Man", "how_it_was_run": "as §1"}, "[6]": {"biological_target": "Man6P(a1-3)Man(a1-3)Man(a1-3)Man(a1-2)Man", "how_it_was_run": "as §1"}, "[7]": {"biological_target": "Neu(a2-3)Gal(b1-4)Glc", "how_it_was_run": "as §1"}, "[8]": {"biological_target": "Neu(a2-3)Gal(b1-4)GlcNAc(b1-3)Gal(b1-4)[Fuc(a1-3)]GlcNAc(b1-3)Gal(b1-4)Glc", "how_it_was_run": "as §1"}, "[9]": {"biological_target": "Neu(a2-3)Gal(b1-4)GlcNAc6S(b1-3)Gal(b1-4)Glc", "how_it_was_run": "as §1"}, "[10]": {"biological_target": "Neu(a2-3)Gal(b1-4)[Fuc(a1-3)]GlcNAc(b1-3)Gal(b1-4)Glc", "how_it_was_run": "as §1"}, "[11]": {"biological_target": "Neu(a2-3)Gal(b1-4)[Fuc(a1-3)]GlcNAc6S(b1-3)Gal(b1-4)Glc", "how_it_was_run": "as §1"}, "[12]": {"biological_target": "Neu(a2-3)Gal6S(b1-4)[Fuc(a1-3)]GlcN(b1-3)Gal(b1-4)Glc", "how_it_was_run": "as §1"}, "[13]": {"biological_target": "Neu(a2-6)Gal(b1-4)Glc", "how_it_was_run": "as §1"}, "[14]": {"biological_target": "Neu4Ac5Ac(a2-3)Gal(b1-4)Glc", "how_it_was_run": "as §1"}, "[15]": {"biological_target": "Neu5Ac(a2-3)Gal", "how_it_was_run": "as §1"}, "[16]": {"biological_target": "Neu5Ac(a2-3)Gal(b1-3)GalNAc(b1-4)Gal(b1-4)Glc", "how_it_was_run": "as §1"}, "[17]": {"biological_target": "Neu5Ac(a2-3)Gal(b1-3)GalNAc(b1-4)[Neu5Ac(a2-3)]Gal(b1-4)Glc", "how_it_was_run": "as §1"}, "[18]": {"biological_target": "Neu5Ac(a2-3)Gal(b1-3)GalNAc(b1-4)[Neu5Ac(a2-8)Neu5Ac(a2-3)]Gal(b1-4)Glc", "how_it_was_run": "as §1"}, "[19]": {"biological_target": "Neu5Ac(a2-3)Gal(b1-3)GlcNAc", "how_it_was_run": "as §1"}, "[20]": {"biological_target": "Neu5Ac(a2-3)Gal(b1-3)GlcNAc(b1-3)Gal(b1-4)Glc", "how_it_was_run": "as §1"}, "[21]": {"biological_target": "Neu5Ac(a2-3)Gal(b1-3)GlcNAc(b1-3)[Fuc(a1-3)[Gal(b1-4)]GlcNAc(b1-6)]Gal(b1-4)Glc", "how_it_was_run": "as §1"}, "[22]": {"biological_target": "Neu5Ac(a2-3)Gal(b1-3)[Fuc(a1-4)]GlcNAc", "how_it_was_run": "as §1"}, "[23]": {"biological_target": "Neu5Ac(a2-3)Gal(b1-3)[Fuc(a1-4)]GlcNAc(b1-3)Gal(b1-4)Glc", "how_it_was_run": "as §1"}, "[24]": {"biological_target": "Neu5Ac(a2-3)Gal(b1-3)[Neu5Ac(a2-6)]GalNAc", "how_it_was_run": "as §1"}, "[25]": {"biological_target": "Neu5Ac(a2-3)Gal(b1-3)[Neu5Ac(a2-6)]GlcNAc(b1-3)Gal(b1-4)Glc", "how_it_was_run": "as §1"}, "[26]": {"biological_target": "Neu5Ac(a2-3)Gal(b1-4)Glc", "how_it_was_run": "as §1"}, "[27]": {"biological_target": "Neu5Ac(a2-3)Gal(b1-4)GlcNAc", "how_it_was_run": "as §1"}, "[28]": {"biological_target": "Neu5Ac(a2-3)Gal(b1-4)GlcNAc(b1-2)Man(a1-3)[Neu5Ac(a2-3)Gal(b1-4)GlcNAc(b1-2)Man(a1-6)]Man(b1-4)GlcNAc(b1-4)[Fuc(a1-6)]GlcNAc", "how_it_was_run": "as §1"}, "[29]": {"biological_target": "Neu5Ac(a2-3)Gal(b1-4)GlcNAc(b1-3)Gal(b1-4)Glc", "how_it_was_run": "as §1"}, "[30]": {"biological_target": "Neu5Ac(a2-3)Gal(b1-4)GlcNAc6S(b1-3)Gal6S(b1-3)GlcNAc6S", "how_it_was_run": "as §1"}, "[31]": {"biological_target": "Neu5Ac(a2-3)Gal(b1-4)[Fuc(a1-3)]GlcNAc", "how_it_was_run": "as §1"}, "[32]": {"biological_target": "Neu5Ac(a2-3)Gal(b1-4)[Fuc(a1-3)]GlcNAc(b1-3)Gal", "how_it_was_run": "as §1"}, "[33]": {"biological_target": "Neu5Ac(a2-3)Gal(b1-4)[Fuc(a1-3)]GlcNAc(b1-3)Gal(b1-4)Glc", "how_it_was_run": "as §1"}, "[34]": {"biological_target": "Neu5Ac(a2-3)Gal(b1-4)[Fuc(a1-3)]GlcNAc(b1-3)Gal(b1-4)[Fuc(a1-3)]GlcNAc(b1-3)Gal(b1-4)Glc", "how_it_was_run": "as §1"}, "[35]": {"biological_target": "Neu5Ac(a2-3)Gal(b1-4)[Fuc(a1-3)]GlcNAc6S(b1-3)Gal(b1-4)Glc", "how_it_was_run": "as §1"}, "[36]": {"biological_target": "Neu5Ac(a2-3)Gal6S(b1-4)[Fuc(a1-3)]GlcNAc(b1-3)Gal(b1-4)Glc", "how_it_was_run": "as §1"}, "[37]": {"biological_target": "Neu5Ac(a2-3)Gal6S(b1-4)[Fuc(a1-3)]GlcNAc6S(b1-3)Gal(b1-4)Glc", "how_it_was_run": "as §1"}}, "note": "The list shows a part of the results.", "data": [{"binder": "MIC1 (Toxoplasma gondii), O00834 (protein) VGPEAYGEASHSHSPASGRYIQQMLDQRCQEIAAELCQSGLRKMCVPSSRIVARNAVGITHQNTLQWRCFDTASLLESNQENNGVNCVDDCGHTIPCPGGVHRQNSNHATRHEILSKLVEEGVQRFCSPYQASANKYCNDKFPGTIARRSKGFGNNVEVAWRCYEKASLLYSVYAECASNCGTTWYCPGGRRGTSTELDKRHYTEEEGIRQAIGSVDSPCSEVEVCLPKDENPPLCLDESGQISRT", "values": [{"measurement": "glycan array binding signal (z-score)", "setting": "[1]", "value": -0.312}, {"measurement": "glycan array binding signal (z-score)", "setting": "[2]", "value": -0.287}, {"measurement": "glycan array binding signal (z-score)", "setting": "[3]", "value": -0.312}, {"measurement": "glycan array binding signal (z-score)", "setting": "[4]", "value": -0.312}, {"measurement": "glycan array binding signal (z-score)", "setting": "[5]", "value": -0.3}, {"measurement": "glycan array binding signal (z-score)", "setting": "[6]", "value": -0.284}, {"measurement": "glycan array binding signal (z-score)", "setting": "[7]", "value": -0.455}, {"measurement": "glycan array binding signal (z-score)", "setting": "[8]", "value": 0.551}, {"measurement": "glycan array binding signal (z-score)", "setting": "[9]", "value": -0.476}, {"measurement": "glycan array binding signal (z-score)", "setting": "[10]", "value": -0.479}, {"measurement": "glycan array binding signal (z-score)", "setting": "[11]", "value": -0.441}, {"measurement": "glycan array binding signal (z-score)", "setting": "[12]", "value": -0.443}, {"measurement": "glycan array binding signal (z-score)", "setting": "[13]", "value": -0.469}, {"measurement": "glycan array binding signal (z-score)", "setting": "[14]", "value": -0.395}, {"measurement": "glycan array binding signal (z-score)", "setting": "[15]", "value": 0.052}, {"measurement": "glycan array binding signal (z-score)", "setting": "[16]", "value": -0.42}, {"measurement": "glycan array binding signal (z-score)", "setting": "[17]", "value": 1.69}, {"measurement": "glycan array binding signal (z-score)", "setting": "[18]", "value": 1.48}, {"measurement": "glycan array binding signal (z-score)", "setting": "[19]", "value": 2.24}, {"measurement": "glycan array binding signal (z-score)", "setting": "[20]", "value": 1.71}, {"measurement": "glycan array binding signal (z-score)", "setting": "[21]", "value": 0.358}, {"measurement": "glycan array binding signal (z-score)", "setting": "[22]", "value": 1}, {"measurement": "glycan array binding signal (z-score)", "setting": "[23]", "value": -0.005}, {"measurement": "glycan array binding signal (z-score)", "setting": "[24]", "value": 1.81}, {"measurement": "glycan array binding signal (z-score)", "setting": "[25]", "value": 1.73}, {"measurement": "glycan array binding signal (z-score)", "setting": "[26]", "value": 0.76}, {"measurement": "glycan array binding signal (z-score)", "setting": "[27]", "value": 1.75}, {"measurement": "glycan array binding signal (z-score)", "setting": "[28]", "value": 2.46}, {"measurement": "glycan array binding signal (z-score)", "setting": "[29]", "value": 0.544}, {"measurement": "glycan array binding signal (z-score)", "setting": "[30]", "value": 4.52}, {"measurement": "glycan array binding signal (z-score)", "setting": "[31]", "value": 0.453}, {"measurement": "glycan array binding signal (z-score)", "setting": "[32]", "value": -0.439}, {"measurement": "glycan array binding signal (z-score)", "setting": "[33]", "value": 0.087}, {"measurement": "glycan array binding signal (z-score)", "setting": "[34]", "value": -0.052}, {"measurement": "glycan array binding signal (z-score)", "setting": "[35]", "value": 1.73}, {"measurement": "glycan array binding signal (z-score)", "setting": "[36]", "value": 1.33}, {"measurement": "glycan array binding signal (z-score)", "setting": "[37]", "value": 2.46}]}]}
